Measured values taken from the supplement of paper PMC4967469.

Compound: N.N.[Cl][Pt][Cl] [Cisplatin]
Assay: Viability of human cancer cell lines after 72 h of drug (GDSC screen)
Conditions: top dose inferred
Description: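 Human cancer cell lines in 384-well plates, medium with 10% serum, drug for 72 h over a 256-fold dose range (nine 2-fold or five 4-fold steps up to the top dose). Adherent lines were fixed and stained with the nucleic acid dye Syto60, suspension lines read with resazurin; signal relative to control wells, capped at 0 and 100%. One two-parameter sigmoid per drug and line, fitted in a mixed model over all curves with the slope shared within a line.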

| Cell Line | AUC | IC50 [µM] |
| --- | --- | --- |
| ME-1 (acute myeloid leukaemia, suspension, top dose 10 µM) | 0.969 | > 10 |
| MEG-01 (chronic myeloid leukaemia, suspension, top dose 10 µM) | 0.963 | > 10 |
| MEL-HO (melanoma, adherent, top dose 10 µM) | 0.85 | 7.74 |
| MEL-JUSO (melanoma, adherent, top dose 10 µM) | 0.879 | > 10 |
| MES-SA (uterus, adherent, top dose 10 µM) | 0.872 | 7.16 |
| MFE-280 (endometrium, adherent, top dose 10 µM) | 0.981 | > 10 |
| MFE-296 (endometrium, adherent, top dose 10 µM) | 0.911 | > 10 |
| MFH-ino (soft tissue, adherent, top dose 10 µM) | 0.784 | 5.06 |
| MFM-223 (breast, adherent, top dose 10 µM) | 0.949 | > 10 |
| MG-63 (osteosarcoma, adherent, top dose 10 µM) | 0.883 | > 10 |
| MHH-CALL-2 (B-cell leukaemia, suspension, top dose 10 µM) | 0.931 | 8.87 |
| MHH-ES-1 (Ewing sarcoma, adherent, top dose 10 µM) | 0.702 | 2.3 |
| MHH-NB-11 (neuroblastoma, adherent, top dose 10 µM) | 0.809 | 5.85 |
| MHH-PREB-1 (B-cell leukaemia, suspension, top dose 10 µM) | 0.972 | > 10 |
| MIA-PaCa-2 (pancreas, adherent, top dose 10 µM) | 0.631 | 1.49 |
| MKN7 (stomach, adherent, top dose 10 µM) | 0.913 | > 10 |
| MKN28 (stomach, adherent, top dose 10 µM) | 0.931 | > 10 |
| ML-2 (acute myeloid leukaemia, suspension, top dose 10 µM) | 0.903 | > 10 |
| MLMA (hairy cell leukaemia, semi-adherent, top dose 10 µM) | 0.868 | 9.29 |
| MM1S (myeloma, suspension, top dose 10 µM) | 0.902 | > 10 |
| MMAC-SF (melanoma, adherent, top dose 10 µM) | 0.987 | > 10 |
| MN-60 (B-cell leukaemia, suspension, top dose 10 µM) | 0.987 | > 10 |
| MOG-G-CCM (glioma, adherent, top dose 10 µM) | 0.797 | 5.67 |
| MOG-G-UVW (glioma, adherent, top dose 10 µM) | 0.676 | 1.91 |
| MOLM-13 (acute myeloid leukaemia, suspension, top dose 6 µM) | 0.87 | 4.98 |
| MOLM-16 (acute myeloid leukaemia, suspension, top dose 6 µM) | 0.909 | > 6 |

| Cell Line | AUC | IC50 [µM] |
| --- | --- | --- |
| MOLP-8 (myeloma, suspension, top dose 6 µM) | 0.915 | > 6 |
| MOLT-4 (lymphoblastic leukaemia, suspension, top dose 6 µM) | 0.828 | 2.81 |
| MOLT-13 (T-cell lymphoblastic leukaemia, suspension, top dose 10 µM) | 0.988 | > 10 |
| MOLT-16 (T-cell lymphoblastic leukaemia, suspension, top dose 10 µM) | 0.828 | 4.56 |
| MONO-MAC-6 (acute myeloid leukaemia, suspension, top dose 10 µM) | 0.927 | > 10 |
| MPP-89 (mesothelioma, adherent, top dose 10 µM) | 0.798 | 6.51 |
| MRK-nu-1 (breast, suspension, top dose 10 µM) | 0.989 | > 10 |
| MS751 (cervix, adherent, top dose 10 µM) | 0.9 | > 10 |
| MS-1 (small cell lung carcinoma, suspension, top dose 10 µM) | 0.988 | > 10 |
| MSTO-211H (mesothelioma, adherent, top dose 10 µM) | 0.945 | > 10 |
| MV-4-11 (leukaemia, suspension, top dose 10 µM) | 0.8 | 3.88 |
| MY-M12 (leukaemia, suspension, top dose 10 µM) | 0.967 | > 10 |
| MZ1-PC (pancreas, adherent, top dose 10 µM) | 0.887 | > 10 |
| MZ2-MEL (melanoma, adherent, top dose 10 µM) | 0.644 | 1.68 |
| Mewo (melanoma, adherent, top dose 10 µM) | 0.874 | > 10 |
| Mo-T (hairy cell leukaemia, suspension, top dose 10 µM) | 0.81 | 5.41 |
| NALM-6 (B-cell leukaemia, suspension, top dose 10 µM) | 0.901 | 9.2 |
| NAMALWA (Burkitt lymphoma, suspension, top dose 10 µM) | 0.781 | 3.46 |
| NB1 (neuroblastoma, semi-adherent, top dose 10 µM) | 0.849 | 8.75 |
| NB5 (neuroblastoma, adherent, top dose 10 µM) | 0.821 | 5.9 |
| NB6 (neuroblastoma, adherent, top dose 10 µM) | 0.971 | > 10 |
| NB10 (neuroblastoma, adherent, top dose 10 µM) | 0.812 | 5.19 |
| NB12 (neuroblastoma, adherent, top dose 10 µM) | 0.953 | > 10 |
| NB13 (neuroblastoma, adherent, top dose 10 µM) | 0.927 | > 10 |
| NB14 (neuroblastoma, adherent, top dose 10 µM) | 0.895 | > 10 |
| NB17 (neuroblastoma, adherent, top dose 10 µM) | 0.928 | > 10 |

| Cell Line | AUC | IC50 [µM] |
| --- | --- | --- |
| NB69 (neuroblastoma, adherent, top dose 10 µM) | 0.864 | 7.11 |
| NB(TU)1-10 (neuroblastoma, adherent, top dose 10 µM) | 0.968 | > 10 |
| NB-4 (acute myeloid leukaemia, suspension, top dose 10 µM) | 0.764 | 3.03 |
| NCC010 (kidney, adherent, top dose 10 µM) | 0.914 | > 10 |
| NCC021 (kidney, adherent, top dose 10 µM) | 0.955 | > 10 |
| NCI-H23 (lung adenocarcinoma, adherent, top dose 10 µM) | 0.819 | 5.62 |
| NCI-H28 (mesothelioma, adherent, top dose 10 µM) | 0.914 | > 10 |
| NCI-H64 (small cell lung carcinoma, suspension, top dose 6 µM) | 0.987 | > 6 |
| NCI-H69 (small cell lung carcinoma, suspension, top dose 10 µM) | 0.969 | > 10 |
| NCI-H82 (small cell lung carcinoma, suspension, top dose 10 µM) | 0.8 | 4.54 |
| NCI-H146 (small cell lung carcinoma, suspension, top dose 6 µM) | 0.986 | > 6 |
| NCI-H187 (small cell lung carcinoma, suspension, top dose 10 µM) | 0.935 | > 10 |
| NCI-H209 (small cell lung carcinoma, suspension, top dose 6 µM) | 0.329 | 0.121 |
| NCI-H211 (small cell lung carcinoma, adherent, top dose 10 µM) | 0.945 | > 10 |
| NCI-H226 (lung squamous cell carcinoma, adherent, top dose 10 µM) | 0.949 | > 10 |
| NCI-H292 (lung adenocarcinoma, adherent, top dose 10 µM) | 0.966 | > 10 |
| NCI-H322M (lung adenocarcinoma, suspension, top dose 10 µM) | 0.963 | > 10 |
| NCI-H345 (small cell lung carcinoma, suspension, top dose 10 µM) | 0.976 | > 10 |
| NCI-H358 (lung adenocarcinoma, adherent, top dose 10 µM) | 0.939 | > 10 |
| NCI-H441 (lung adenocarcinoma, adherent, top dose 10 µM) | 0.962 | > 10 |
| NCI-H446 (small cell lung carcinoma, semi-adherent, top dose 10 µM) | 0.965 | > 10 |
| NCI-H460 (large cell lung carcinoma, adherent, top dose 10 µM) | 0.827 | 5.32 |
| NCI-H508 (large intestine, semi-adherent, top dose 10 µM) | 0.96 | > 10 |
| NCI-H510A (small cell lung carcinoma, semi-adherent, top dose 10 µM) | 0.923 | > 10 |
| NCI-H524 (small cell lung carcinoma, suspension, top dose 10 µM) | 0.861 | 7.02 |
| NCI-H526 (small cell lung carcinoma, suspension, top dose 10 µM) | 0.792 | 4.3 |

The IC50 comes from the fitted curve, where viability falls to half of the control; where the fit passes the top or lowest dose, that dose stands as a limit. AUC is the area under the same curve over the 256-fold range up to the top dose, as a fraction; values near 1 show little effect. Any top dose called inferred is not printed in the source and was worked back from the curve model.
